Source: the GPR68 mutational scans of Howard et al. (2025)

B1: GPR68, Q15743 (parent)
chain: MGNITADNSSMSCTIDHTIHQTLAPVVYVTVLVVGFPANCLSLYFGYLQIKARNELGVYLCNLTVADLFYICSLPFWLQYVLQHDNWSHGDLSCQVCGILLYENIYISVGFLCCISVDRYLAVAHPFRFHQFRTLKAAVGVSVVIWAKELLTSIYFLMHEEVIEDENQHRVCFEHYPIQAWQRAINYYRFLVGFLFPICLLLASYQGILRAVRRSHGTQKSRKDQIQRLVLSTVVIFLACFLPYHVLLLVRSVWEASCDFAKGVFNAYHFSLLLTSFNCVADPVLYCFVSETTHRDLARLRGACLAFLTCSRTGRAREAYPLGAPEASGKSGAQGEEPELLTKLHPAFQTPNSPGSGGFPTGRLA

How the values were obtained:
[1] = variants of: B1; experiment: cAMP reporter score (Enrich2 score, wild type = 0); higher = more signal; HEK293T, FACS bins
[2] = variants of: B1; experiment: surface expression score (Enrich2 score, wild type = 0); higher = more signal; HEK293T, FACS bins

Variant	cAMP reporter score ([1]; pH 5.5)	cAMP reporter score ([1]; pH 6)	cAMP reporter score ([1]; pH 6, modulator: ogerin)	cAMP reporter score ([1]; pH 6.5, modulator: ogerin)	surface expression score [2]
N8_S9insG	0.092	-0.335	0.104	-0.016	-0.07
I15del	-1.27	-1.06	-1.45	-0.948	-1.56
G2L	0.451	-0.596	0.646	-0.195	-0.054
G2M	-0.513	–	-0.597	-0.626	-0.243
G2S	0.254	-0.175	0.719	-0.393	-0.025
G2H	0.979	0.159	1.19	0.72	1.26
G2C	0.612	-0.403	0.702	0.011	-0.013
G2Q	0.697	0.262	0.754	0.308	0.783
G2E	-0.118	0.442	-0.095	-0.341	-0.031
G2P	0.151	-0.627	0.013	0.367	0.611
G2D	0.048	0.332	-0.005	0.184	-0.436
G2K	0.855	0.611	0.71	0.854	0.984
G2A	0.256	-0.567	-0.048	0.112	-0.123
G2I	-0.09	0.355	-0.051	0.402	-0.31
G2R	0.968	0.248	0.985	0.307	0.771
G2F	0.073	1.13	1.08	1.01	1.09
G2W	0.544	0.311	0.337	0.422	0.433
G2V	0.161	0.067	0.174	-0.049	0.043
G2N	0.044	0.162	-0.271	-0.021	0.011
G2T	0.435	-0.357	-0.045	-0.025	-0.965
G2Y	0.495	0.147	0.512	0.77	0.417

Variant	cAMP reporter score ([1]; pH 5.5)	cAMP reporter score ([1]; pH 6)	cAMP reporter score ([1]; pH 6, modulator: ogerin)	cAMP reporter score ([1]; pH 6.5, modulator: ogerin)	surface expression score [2]
S9M	0.17	-0.624	0.228	0.718	0.259
S9P	0.43	–	–	-0.607	-0.296
S9L	0.606	0.904	0.693	1.19	-0.549
S9G	0.369	0.949	0.739	0.381	0.781
S9T	-0.601	-0.472	-1.09	-0.945	-0.855
S9V	0.409	0.142	0.542	0.059	0.321
S9D	-0.334	-0.143	-0.318	-0.007	0.165
S9K	0.083	-0.362	0.18	-0.077	0.129
S9F	-0.299	-0.357	-0.615	-0.623	-0.72
S9Y	0.821	1.13	0.698	1.33	0.525
S9C	-0.252	-0.032	-0.099	0.499	0.231
S9I	0.501	0.882	1.2	0.616	0.215
S9A	-0.817	-1.06	-0.715	-0.663	-0.916
S9Q	0.029	0.78	-0.68	0.31	-0.255
S9E	-0.253	-0.444	-2.07	-0.827	-0.848
S9H	-0.74	-0.861	-1.35	-1.7	-1.88
S9R	0.538	0.684	0.697	0.734	0.473
S9N	1.17	0.477	1.34	1.74	1.29
S9W	-0.275	-0.317	-0.412	-0.554	-0.96
M11_C13del	-0.88	-0.971	-1.36	-0.798	-1.72
D16_H17insGSG	-0.149	-0.008	0.619	-0.075	-0.352

Variant	cAMP reporter score ([1]; pH 5.5)	cAMP reporter score ([1]; pH 6)	cAMP reporter score ([1]; pH 6, modulator: ogerin)	cAMP reporter score ([1]; pH 6.5, modulator: ogerin)	surface expression score [2]
T14_I15insG	-0.504	–	-0.311	1.95	-1.29
T5W	-0.111	–	-0.456	-0.611	-1.34
T5R	1.17	0.687	1.44	0.11	-1.11
T5C	0.101	-0.108	-0.719	0.226	-1.38
T5S	0.034	-0.346	0.187	0.478	-0.721
T5Q	0.619	0.094	0.918	0.682	–
T5E	0.037	-0.195	-0.257	-0.272	-0.576
T5F	0.342	1.33	–	-0.359	-0.424
T5P	-0.393	0.115	-0.32	0.3	0.261
T5Y	-0.681	0.136	-0.704	-0.436	-1.34
T5N	-0.135	0.188	-1.01	-0.891	-1.23
T5L	-0.502	-1.15	-1	-0.537	-1.43
T5A	-0.083	-0.653	0.582	0.013	-0.301
T5I	0.506	0.044	0.048	0.063	-1.04
T5G	0.471	0.041	-0.094	-0.143	-0.748
T5V	-0.297	-0.657	-1.28	-0.906	-1.33
T5H	-1.03	-1.09	-1.13	-0.921	-1.95
T5M	-0.183	0.064	-0.556	-1.07	-1.25
T5K	-0.059	-0.722	-0.367	-0.702	-0.853

Scores whose standard error is large were omitted. Not listed are two conditions whose scores span a narrow range. Names with del lack the residues named; names with ins carry added residues between the positions named. For some of these results: The concentration of ogerin is not given here.
